Laboratory results as given in ChEMBL document CHEMBL1201862, “PubChem BioAssay data set” (2004).

The compounds below were run on NCI-H322M (assay: inhibition of tumour cell growth, NCI panel, 48 h).
`COC1C(C)OC(OC2CC(C)(O)Cc3cc4c(c(O)c32)C(=O)c2c(O)cc3c(c2C4=O)OC2OC3(C)C(O)C(N(C)C)C2O)C(OC)C1(C)OC` (stereo unspecified) was tested, and the GI50 was active: 0.0198 µM.
`O=C(NCCN1CCCCC1)c1ccc(I)cc1` was tested, and the GI50 was inactive: > 100 µM.
In the case of `CC(CC(=O)O)(CC(=O)O)C(=O)O`, the GI50 is reported as inactive: > 100 µM.
With `COCCOC(=O)c1c(C)[n+]([O-])c2cc(Cl)c(Cl)cc2[n+]1[O-]` the GI50 was inactive: 30.4 µM.
With `CCOC(=O)CCC(NC(=O)Cc1ccc(Oc2nc3ccccc3nc2-c2ccccc2)cc1)C(=O)OCC` (stereo unspecified) the GI50 was inactive: > 100 µM.
`CCOC(=O)n1c2ccccc2c2c(O)c(OC)c3c(c21)C(=O)NC3=O` was tested, and the GI50 was inactive: 96.8 µM.
In the case of `C/C(CCOC1CCCCO1)=C(\C)[Si](C)(C)C` (stereo unspecified), the GI50 is reported as inactive: > 100 µM.
`COc1ccccc1/N=N/C(=N/NC(=O)c1ccc(C)cc1)c1ccc(N(CCC#N)CCC#N)cc1OC` was tested, and the GI50 was inactive: 46.9 µM.
In the case of `O=S(=O)(/C=C/C(=C/c1ccccc1)S(=O)(=O)c1ccccc1)c1ccccc1`, the GI50 is reported as inactive: 1.84 µM.
For `NS(=O)(=O)c1nn2c(Br)c(-c3ccccc3)nc2s1`, the GI50 was inactive: 4.83 µM.
`CC(C)C(C)C(C)(C)P(C)(C)=O` (stereo unspecified) was tested, and the GI50 was inactive: > 100 µM.
In the case of `O=C1O[C@H](c2ccccc2)[C@@H]2CC3(CCN12)OCCO3`, the GI50 is reported as inactive: > 100 µM.
In the case of `COc1ccc(C2CC(c3sc(Nc4ccc(C)cc4)nc3C)=NN2)cc1` (stereo unspecified), the GI50 is reported as inactive: 21.3 µM.
With `CCOc1ccccc1/C=C1\NC(=O)N(/C=C2\C(=O)Oc3ccccc3C2=O)C1=O` the GI50 was inactive: 55.6 µM.
For `COc1cccc(-c2nc(-c3cnccn3)n(Cc3ccccc3)n2)c1`, the GI50 was inactive: > 100 µM.
In the case of `C/C(CC(=O)Nc1ccc(Cl)cc1)=N\NC(=O)C[n+]1ccccc1`, the GI50 is reported as inactive: > 100 µM.
In the case of `O=C(O)C1=C(O)C(C(=O)O)C23CCCCCCCCCCC12C(C(=O)O)C(O)=C3C(=O)O` (stereo unspecified), the GI50 is reported as inactive: > 100 µM.
`Cc1nc(-c2cccnc2)sc1C(=O)/C=C/c1cccc([N+](=O)[O-])c1` was tested, and the GI50 was inactive: > 100 µM.
With `CSC(SC)=C(C(=O)c1ccc(Cl)cc1)n1c(=O)sc2cc(Br)ccc21` the GI50 was inactive: > 100 µM.
`CSC(=S)N/N=C(\C)c1cccc(C)n1` was tested, and the GI50 was inactive: 2.05 µM.
In the case of `CCN1C(=O)C(C)S/C1=N\NC(=O)CSc1nc2ccccc2c(=O)n1CC` (stereo unspecified), the GI50 is reported as inactive: > 100 µM.
`COC(=O)c1c(C)cccc1C1CN=NC12Cc1cc(C)cc(C)c1C2=O` (stereo unspecified) was tested, and the GI50 was inactive: 23.2 µM.
`O=Cc1cc(C(=O)OCc2ccccc2)n(S(=O)(=O)c2ccccc2)c1` was tested, and the GI50 was inactive: 27.3 µM.
`Cc1cc(=O)n2nc(SCc3ccccc3)sc2n1` was tested, and the GI50 was inactive: > 100 µM.
In the case of `Nc1ccn(C2C=C(CO)C(O)C2O)c(=O)c1` (stereo unspecified), the GI50 is reported as inactive: > 625 µM.
With `COc1ccc(OC)c([N+](=O)[O-])c1-c1nc2sc(Cl)cn2c1/C=N/N=C(N)N` the GI50 was inactive: 19.8 µM.
With `COC(=O)CNC(=O)CNC(=O)CSc1nnc(COc2ccc(Cl)cc2)n1-c1ccccc1` the GI50 was inactive: 56.9 µM.
For `CC1=C(C)C(=O)C(C2=CC(=O)c3ccccc3C2=O)=C(C2=CC(=O)c3ccccc3C2=O)C1=O`, the GI50 was inactive: 19.1 µM.
In the case of `CC1(C)OC(C(C)(C)O)C(C(C)(C)O)O1` (stereo unspecified), the GI50 is reported as inactive: > 100 µM.
For `COC(=O)C12OCC34C(CC5C(C)=CC(=O)C(O)C5(C)C3C(O)C1O)OC(=O)C(OC(=O)CC(C)C)C24` (stereo unspecified), the GI50 was active: 0.00429 µM.
`O=c1cc(-c2ccccc2)c2ccc(O)c(CN(CCCl)CCCl)c2o1` was tested, and the GI50 was inactive: 22.8 µM.
For `CC1=CN(c2ccccc2)S2=C1c1sc3c(c1N2c1ccc(Br)cc1)CCCC3` (stereo unspecified), the GI50 was inactive: > 100 µM.
With `C=C(CCC/C(C)=C/C=C/[C@@H](C)CCCc1ccoc1)C[C@@H]1OC(=O)[C@H](C)[C@@H]1O` the GI50 was inactive: 6.64 µM.
With `O=C1CCSSCCC(=O)Nc2ccccc2N1` the GI50 was inactive: > 100 µM.
`CC(C)(C)[Si](C)(C)OCCCCC1CC2(S(=O)(=O)C3=CC=C=C=C3)ON1CC2S(=O)(=O)c1ccccc1` (stereo unspecified) was tested, and the GI50 was inactive: > 100 µM.
With `CC(=O)OCC1OC(n2c(-c3ccc(C)cc3)cc(-c3ccccc3)c(C#N)c2=O)C(OC(C)=O)C(OC(C)=O)C1OC(C)=O` (stereo unspecified) the GI50 was inactive: > 100 µM.
With `C[C@H]1CC[C@@H]2[C@@H](C)[C@H]3[C@H](C[C@H]4[C@@H]5CC=C6C[C@@H](O)CC[C@]6(C)[C@H]5CC[C@]34C)N2C1` the GI50 was inactive: 79.8 µM.
`CSc1nc(NC(=O)O)c(N(C(C)=O)C(=O)O)c(=O)n1C` was tested, and the GI50 was inactive: > 100 µM.
`COc1cc(Nc2ccc3c(c2)CCC3)nc(OC)n1` was tested, and the GI50 was inactive: 95.9 µM.
In the case of `CC1=C(C(=O)Nc2ccccc2)C(c2ccc(C)o2)C(C#N)=C(SCc2ccccc2)N1` (stereo unspecified), the GI50 is reported as inactive: > 100 µM.
`Cc1cccc(/C=N/NC(=S)NCc2ccccn2)n1` was tested, and the GI50 was inactive: 33.7 µM.
`C1CCNCC1.O=C1NC(=S)N/C1=C/c1ccccc1O` was tested, and the GI50 was inactive: > 100 µM.
With `CC(C)(C)OC(=O)N1CCC(NC(=O)NC2CCN(C(=O)OC(C)(C)C)CC2)CC1` the GI50 was inactive: > 100 µM.
For `CC(=O)N1C(C(=O)NC2CCCCC2)CSC1c1ccccc1` (stereo unspecified), the GI50 was inactive: > 100 µM.
In the case of `C[N+]1(CCCCN2c3ccccc3Sc3cc(N=[N+]=[N-])ccc32)CCN(C(=O)CCNC(=O)Cc2ccc(C(=O)c3ccccc3)cc2)CC1`, the GI50 is reported as inactive: 16.4 µM.
With `COC(=O)c1c(O)ccc2c1c1c(n2Cc2ccc(Cl)cc2Cl)C(=O)c2ccccc2C1` the GI50 was inactive: > 100 µM.
For `COc1ccc(Oc2ccccc2N)cc1`, the GI50 was inactive: 59.6 µM.
For `Sc1nc(S)nc(Oc2ccc(Cl)c(Cl)c2)n1`, the GI50 was inactive: 25.6 µM.
`CC(=O)CCC1(c2ccccc2)OC(=O)C(C#N)=C1c1ccccc1` (stereo unspecified) was tested, and the GI50 was inactive: > 100 µM.
`N#Cc1cc2cc3c4c(c2oc1=O)CCCN4CCC3` was tested, and the GI50 was inactive: > 100 µM.
In the case of `CCCCC1C=Cn2c(=O)oc3c(OC(C)C)c(OC(C)C)c(O)c1c32` (stereo unspecified), the GI50 is reported as inactive: 23.1 µM.
For `Nc1ccc(SC23CC4CC(CC(C4)C2)C3)cc1`, the GI50 was inactive: > 100 µM.
In the case of `Nc1ncnc2c1ncn2Cc1cccc(CCl)c1`, the GI50 is reported as inactive: 21.8 µM.
In the case of `Cc1cc2ncn(-c3nc4ccccc4nc3C(C#N)S(C)(=O)=O)c2cc1C` (stereo unspecified), the GI50 is reported as inactive: > 100 µM.
For `CCN(C(=O)N[C@@H](Cc1ccccc1)C(=O)N[C@@H](CC(C)C)C(=O)OC)c1ccccc1`, the GI50 was inactive: 40.9 µM.
In the case of `CC(=O)ON1C(=O)c2cccc3cccc(c23)C1=O`, the GI50 is reported as inactive: 27.5 µM.
With `CN(C)C(=S)/N=c1\ssc(=S)n1-c1ccccc1` the GI50 was inactive: 42.1 µM.
For `O=C1CSC(/C=C/c2ccccc2)N1c1ccc(-c2ccc(-n3c(-c4ccccc4)nc4ccccc4c3=O)cc2)cc1` (stereo unspecified), the GI50 was inactive: 50.5 µM.
For `O=C1CCC2C(O)c3cc4c(cc3C(c3ccc5c(c3)OCO5)N12)OCO4` (stereo unspecified), the GI50 was inactive: > 100 µM.
`O=C(c1ccco1)N(C(=S)OC12CC3CC(CC(C3)C1)C2)c1ccccc1` was tested, and the GI50 was inactive: 29.6 µM.
With `COc1ccc(/C=C/C(=N\NC(=O)c2ccccc2)c2sc(Nc3ccc([N+](=O)[O-])cc3)nc2C)cc1OC` the GI50 was inactive: 14.3 µM.
For `C=C1CC2C[C@H](OS(=O)(=O)c3ccc(C)cc3)C(C1)N2C` (stereo partly specified), the GI50 was inactive: > 100 µM.
`COc1ccc2cc3c4cc5c(cc4cc[n+]3cc2c1OC)OCO5` was tested, and the GI50 was inactive: 39.9 µM.
`CCCCCC(C)(C)CCC(=O)OC1OC(COC2OC(COC3OC(CO)C(O)C(O)C3O)C(O)C(O)C2O)C(O)C(O)C1O` (stereo unspecified) was tested, and the GI50 was inactive: > 100 µM.
In the case of `COc1cc2c(cc1OC)C(C#N)(Cc1ccccc1)N(C(=O)c1ccccc1)C=C2` (stereo unspecified), the GI50 is reported as inactive: > 100 µM.
For `CC(C)C(=O)/C=C/c1ccc(Cl)cc1`, the GI50 was inactive: 29.9 µM.
`CCOC(=O)c1[nH]c(-c2[nH]c(-c3[nH]c(-c4[nH]c(C(=O)OCC)c(C)c4C(=O)OCC)c(C(=O)OCC)c3C)c(C)c2C(=O)OCC)c(C(=O)OCC)c1C` was tested, and the GI50 was inactive: > 100 µM.
In the case of `c1csc(-c2csc(-c3ccsc3)c2)c1`, the GI50 is reported as inactive: > 100 µM.
With `O=c1[nH]nc(Cc2ccccc2)n1C1CCCC1` the GI50 was inactive: > 100 µM.
With `C=CCN(CCN(CC=C)S(=O)(=O)c1ccc(C)cc1)S(=O)(=O)c1ccc(C)cc1` the GI50 was inactive: > 100 µM.
For `O=[N+]([O-])c1ccc(N2C[N+](c3ccccc3)=NC(c3ccccc3)=N2)cc1`, the GI50 was inactive: 38.4 µM.
In the case of `COc1ccc(NC(=O)CC(=O)NN2C(=O)/C(=C/c3ccc(N(CCC#N)CCC#N)cc3C)N=C2/C=C\c2ccccc2)cc1`, the GI50 is reported as inactive: > 100 µM.
For `COC(=O)[C@H]1ON2O[C@H](OC3CCCC[C@@H]3c3ccccc3)C[C@@H]3CC[C@H]1[C@@]32C` (stereo partly specified), the GI50 was inactive: > 100 µM.
In the case of `CC(=O)Oc1c(C)c2c(c3ccccc13)OC(C)(C)C2`, the GI50 is reported as inactive: 15.5 µM.
With `Cc1nc(C(N)=S)sc1C(/C=C/c1ccc(Cl)c(Cl)c1)=N/NC(C)(C)C` the GI50 was inactive: > 100 µM.
In the case of `CC1OC(n2cc(F)c(=O)[nH]c2=O)C=CC1=O` (stereo unspecified), the GI50 is reported as inactive: 63.7 µM.
With `NC(=O)CSc1nc2ccccc2c(=O)n1N` the GI50 was inactive: > 100 µM.
With `O/N=C1/C(=C/c2ccc3c(c2)OCO3)CCCC1C(NO)c1ccc2c(c1)OCO2` (stereo unspecified) the GI50 was inactive: 24.5 µM.
In the case of `CSc1cc(C(C)(C)C)ccc1C(O)c1ccc(C(C)(C)C)cc1SC`, the GI50 is reported as inactive: 14.3 µM.
For `O=C(/C=C/C1C(=O)NC(=O)NC1=O)CC(=O)C(=O)Nc1cc(Cl)c(Cl)cc1Cl`, the GI50 was inactive: > 100 µM.
In the case of `Oc1cc(O)c2ccc(-c3ccc(O)c(O)c3)[o+]c2c1`, the GI50 is reported as inactive: > 100 µM.
For `CP(=O)(CCSc1ccccc1)c1ccccc1` (stereo unspecified), the GI50 was inactive: > 100 µM.
In the case of `CC1(C)O[C@H]2OC(CO)C(N=[N+]=[N-])[C@H]2O1` (stereo partly specified), the GI50 is reported as inactive: > 100 µM.
For `C=C(C)CC1(O[Si](C)(C)C)C(=O)C(OCC)=C1OCC` (stereo unspecified), the GI50 was inactive: > 100 µM.
For `C#C/C=C\CCCC/C=C\C#CC#CCCCC#CC#C[C@H](COS(=O)(=O)O)OS(=O)(=O)O`, the GI50 was inactive: > 100 µM.
In the case of `NC(=O)c1ccc(/N=N/O)nc1`, the GI50 is reported as inactive: > 100 µM.
In the case of `NC(=S)N/N=C/C1NCCC2CCCCC21` (stereo unspecified), the GI50 is reported as active: 0.234 µM.
With `COC(=O)C1=C2CCC(=O)[C@@]2(C)C(OC(C)=O)C=CC1` (stereo partly specified) the GI50 was inactive: > 100 µM.
With `Cc1ccc(S(=O)(=O)N2CCCC2C(=O)O[C@H]2CC[C@H]3CC=C[C@H]32)cc1` (stereo partly specified) the GI50 was inactive: > 100 µM.
With `NCCCCCC(CCN)SCC1OC(n2cnc3c(N)ncnc32)C(O)C1O` (stereo unspecified) the GI50 was inactive: > 1040 µM.
With `Oc1cc(-c2ccc3ccccc3c2)nc2ncc(Cl)cc12` the GI50 was inactive: 4.91 µM.

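Cultured in 96-well plates, cells were exposed to test compound for 48 hours across five concentrations. GI50: concentration for 50% inhibition of growth.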 Activity calls are given as the source filed them. Rule as the data show it: active = GI50 up to about 1.1 µM and inactive = higher.
